Sequences with one replicate were seen in a single cluster, so their values are uncertain.
Tested on: ATP
Experiment: switch fluorescence ratio, 500 uM ATP over buffer (Cy3 cluster intensity, sum of 5 cycles each) (fold (ratio)); higher = stronger signal-on switching upon ATP binding; sequences stand for … in TCGTCGGCAGCGTCAGATGTGTATAAGAGACAGTTTTTTTTTTTTTTTTTTTTTTTTT…TC
Conditions: aptamer strand: ATP DNA aptamer (quencher-CACCTGGGGGAGTATTGCGGAGGAAGG + anchor), 100 nM annealed; ATP concentration: 500 uM; one replicate
How it was run: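 The fluorescence ratio divides summed target-cycle Cy3 intensity by summed buffer-cycle Cy3 intensity for each cluster and is averaged per switch-domain sequence. Cy3-labelled switching-strand clusters on a modified Illumina MiSeq flow-cell were annealed to 100 nM quencher-labelled ATP aptamer, then imaged in selection buffer and again after 15 min with 500 uM ATP at 22 °C. Five such cycles were run, with NaOH stripping and re-annealing between them, and clusters outside 100-1000 RFU were excluded.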
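Note: ATP exposure 15 min at 22 °C before imaging.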

| Sequence | switch fluorescence ratio |
| --- | --- |
| AATTTGGATC | 1.04 |
| GCGTTAAGAC | 1.41 |
| TGTTGAGGTG | 1.04 |
| ATGGATCTTC | 0.999 |
| GGCCTTGCCG | 1.02 |
| TATGATTGGT | 1.01 |
| TGTGATGGCC | 1.03 |
| GTGAATGGGT | 1.03 |
| CTAGTAGCGA | 1.43 |
| TATTCCTGTA | 0.994 |
| GATCACATGG | 1.03 |
| ATGGGCTTAT | 1.02 |
| AAACATGTTC | 0.991 |
| ACTTAGATGT | 1.05 |
| AGCGCGCGAT | 1.02 |
| CTGCGGAAAA | 0.995 |
| TTGGTTGCGC | 1.01 |
| GCGATCGGAA | 1.1 |
| TGATATTCTG | 1.01 |
| GGTGGCGGGT | 0.99 |
| GAAGCAGGTA | 1.1 |
| TGATTTTCAC | 1.52 |
| CCACTTGGGG | 1.05 |

| Sequence | switch fluorescence ratio |
| --- | --- |
| GTTGCAATTA | 1.06 |
| GGGCATATAT | 1.07 |
| AAGAGTCGAA | 0.97 |
| TAAGCAGGGA | 1.02 |
| GCCTTGATAA | 0.955 |
| ATTTCAGCGT | 1.01 |
| TTCCACATAA | 1.03 |
| TTTCTATCT | 1.01 |
| CAAGCCGGAT | 1.05 |
| CTGAGTTTA | 0.993 |
| ATTTCTACG | 1.07 |
| CTTAAACAGG | 1.05 |
| GATTTTTCGA | 0.989 |
| ACATTGCGCT | 0.999 |
| GTGTACAGGG | 1.04 |
| AGGGAACGGA | 0.991 |
| ATATAGGGGT | 1 |
| CGGCTGACGC | 1.02 |
| TCAGTCCAGT | 1 |
| GGGCTTGATT | 0.999 |
| CTCCCCAATT | 3.35 |
| TACGAAATAG | 1.1 |
| TATTTGACGT | 0.988 |

| Sequence | switch fluorescence ratio |
| --- | --- |
| GATGATAGAG | 1 |
| GTTTTCAGAC | 1.02 |
| TATCAACAGA | 1.07 |
| GTTGAGTA | 0.979 |
| TAAGCCCGGA | 1.03 |
| CTGGCTGTAG | 1.04 |
| CAGATAGTAA | 1.03 |
| CCATGCGTTC | 1.12 |
| GTCATAAC | 1.22 |
| GTTATTCGAC | 0.99 |
| GGGTCGTGTG | 0.963 |
| GAGTATCTGG | 0.977 |
| TAGCTTTGGC | 0.97 |
| CGGTCATAAA | 0.992 |
| CAGACAAGGT | 1.03 |
| TCCTGGGACC | 1.04 |
| AGATGTGTAA | 0.996 |
| TGGAGCACGG | 1.06 |
| CTGGAATCGC | 1.52 |
| CTATATGTGG | 1.04 |
| CTAAAAACAG | 1.03 |
| AGGAAAAATG | 1.03 |
| AGAATGGGG | 1.07 |

| Sequence | switch fluorescence ratio |
| --- | --- |
| CCTCGTGGGG | 1.06 |
| CGAAGTTAGG | 0.957 |
| ACGTTCTTGA | 0.976 |
| AGGGAAGACG | 0.902 |
| ACTGGTATCG | 1.02 |
| AAAACCGGTT | 1.02 |
| CGCCATAAGT | 0.976 |
| TCACGTCAAA | 1.68 |
| CGCTTCTCAA | 1.17 |
| GACCCGAAGT | 0.974 |
| TCATAGCAAT | 3.41 |
| CTGGGTTATA | 1.01 |
| TTGAGTAAGG | 1.02 |
| TCTCGAATTG | 0.994 |
| TTTAGTTAGA | 0.974 |
| GCCTTGTTTG | 0.99 |
| GGATATTCGT | 0.999 |
| AGAGCTACCC | 1.01 |
| TGGAAATACC | 1.3 |
| TCAGTCATAC | 3.32 |
| TAGTGGAGGC | 1.06 |
| AGCGAATT | 1.03 |
| CTTTTGGGCT | 1.05 |

| Sequence | switch fluorescence ratio |
| --- | --- |
| AGACTCAGGG | 1 |
| CTTACTGTGG | 1.02 |
| TTCAACACTT | 1 |
| TACGCCGGGT | 1.06 |
| GCTTACGGCG | 0.975 |
| CTGTATATGT | 0.976 |
| TGTAAAATCC | 1.01 |
| TTGCCGAGTT | 0.961 |
| TGGCGCGAAC | 1.65 |
| ATGCCCA | 0.99 |
| CATGTCACAA | 1.03 |
| AATACACAGC | 1.23 |
| CATGCACGCG | 1 |
| GACCGAGGGA | 0.983 |
| TGCACGGATA | 1.04 |
| CATAGCAACA | 1.74 |
| TAGAGACAGA | 1.08 |
| CGATATTTTG | 0.948 |
| GCGTCCAGGG | 1.26 |
| CTTTTTTCGT | 1.04 |
| GCCTATTGA | 0.929 |
| TGAATATGGA | 0.994 |
| GACGCGTCCC | 1.06 |

| Sequence | switch fluorescence ratio |
| --- | --- |
| AGAACCCGTT | 1.01 |
| TCACCCGGTC | 1.19 |
| CGGGGTTGAG | 0.954 |
| GTCCTGACAT | 1.03 |
| ATATATCGG | 0.965 |
| TATCGTAGTT | 1.01 |
| GGATATATCG | 0.987 |
| AATTACATCG | 1.03 |
| CGGGTACAT | 0.995 |
| CAAGCAGCCA | 0.994 |
| CTGATGCTA | 1.61 |
| TAAATACGAG | 1.06 |
| TCCCAGTAGT | 0.982 |
| CCAGCGAGGA | 1.08 |
| GTCGGTTTCG | 1.03 |
| TGGTTTGTGC | 0.976 |
| TATCGTAAAC | 1.07 |
| CGTCTAGCGA | 1.08 |
| GGCACAGGAA | 1.05 |
| GGGATTACGA | 1.01 |
| TGTTAATCAT | 1.01 |
| TCTAGCTAGT | 0.981 |
| AATGAGCCCG | 1.13 |

| Sequence | switch fluorescence ratio |
| --- | --- |
| GAATCGTCAT | 0.951 |
| GTTCAAAGGG | 0.985 |
| ACACGATGGT | 1.06 |
| TCGTTTTGGC | 1.13 |
| ACGAGGAATC | 1.08 |
| ATTGTTCCTT | 1.01 |
| GCTGCCTACT | 1.01 |
| CGTGCGGCCC | 1.02 |
| CGGGCCAGAC | 1.26 |
| CCAGGACAAG | 1.05 |
| ACCAAATAGT | 1.02 |
| GGCTCCTGGC | 1 |
| GATCTTGTCC | 0.961 |
| TCACGCCGTC | 0.986 |
| AGTGACTTGC | 0.983 |
| AGGAGGCTTT | 1.02 |
| TTCTATCATT | 1.03 |
| GACTGCAACT | 1.39 |
| ATGGTGCGAT | 0.97 |

Source: the supplement of paper PMC10126150
